Source: the supplement of paper PMC3334620
In all, about 33,000 sequences were measured (“E-score (-0.5 to 0.5)”: median about -0.012, highest 2% from about 0.27 on). The list shows a part of the results.

The sequences below were run against T1, Vhr1 (UniProt P40522) (assay: PBM E-score (8-mer binding enrichment) (E-score (-0.5 to 0.5)); higher = stronger / more preferred TF binding; most listed sequences are background and not binding sites). Conditions: protein concentration: 200 nM; construct: GST-full length.
T1 sequence: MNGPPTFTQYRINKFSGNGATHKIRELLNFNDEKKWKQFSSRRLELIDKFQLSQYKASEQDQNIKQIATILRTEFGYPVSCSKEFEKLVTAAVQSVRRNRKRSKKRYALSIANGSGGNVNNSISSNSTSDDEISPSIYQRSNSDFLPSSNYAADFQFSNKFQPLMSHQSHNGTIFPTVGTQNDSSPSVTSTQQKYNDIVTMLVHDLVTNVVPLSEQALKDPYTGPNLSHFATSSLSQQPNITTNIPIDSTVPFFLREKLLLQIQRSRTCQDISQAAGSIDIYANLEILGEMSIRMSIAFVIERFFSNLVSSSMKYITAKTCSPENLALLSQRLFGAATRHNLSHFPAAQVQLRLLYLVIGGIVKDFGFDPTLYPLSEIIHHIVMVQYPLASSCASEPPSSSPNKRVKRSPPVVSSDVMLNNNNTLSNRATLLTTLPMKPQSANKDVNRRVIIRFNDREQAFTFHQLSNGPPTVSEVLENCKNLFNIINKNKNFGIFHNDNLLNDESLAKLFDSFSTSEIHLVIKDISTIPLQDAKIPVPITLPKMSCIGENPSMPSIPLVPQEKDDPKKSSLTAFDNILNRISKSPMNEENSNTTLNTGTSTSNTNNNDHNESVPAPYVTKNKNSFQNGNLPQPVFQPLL
Method: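 Universal 'all 10-mer' protein binding microarrays (Agilent AMADID 015681) probed with GST-tagged S. cerevisiae TFs (full-length or DBD) made by in vitro transcription/translation (PURExpress), about 100-200 nM. Bound TF was detected with fluorescent anti-GST. Each ungapped 8-mer (which stands for itself and its reverse complement) is scored by the PBM enrichment score (E-score), a modified Wilcoxon-Mann-Whitney statistic from -0.5 to +0.5, computed with the Universal PBM Analysis Suite. Scale: above 0.35 generally sequence-specific binding.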

Sequence	PBM E-score
GAGCTGCC	-0.0317
CGGAAAGA	-0.074
CCAAACTA	0.108
AACGAACT	-0.161
GACACTGC	0.144
CCATAACC	0.0967
AAGGAGCA	-0.156
CACAATCC	0.0784
CTCGACAG	-0.067
ATTTTTAG	-0.224
ACTCACGA	0.243
CTGGTGTC	0.153
ACCTGACA	0.15
GGGTGTAC	0.00652
ATTACTGG	-0.0353
ACTATGTG	0.292
GTAGTCGA	0.175
AGTACATG	0.084
CAGCGGTC	-0.122
ACTTCCGG	-0.203
AAGGGAGC	-0.00034
ACCTGAAA	-0.0389
AAGCATGT	0.0488
GATAAAGC	-0.216
CCCAGTCA	0.151

Sequence	PBM E-score
CCGGATCC	-0.0685
GGAATTGA	-0.0146
ACTAATGA	0.198
TCCGCTCA	-0.0681
ATTGAAAC	-0.00267
GGGTTACA	-0.00648
ACGTATTA	0.197
CACTCGTA	-0.0431
ATCCTACC	0.0595
CTCGCAGA	-0.0216
AGCCGGTG	0.236
GAGGGTAC	0.0901
AGGTGATC	0.115
ACGTCCAT	-0.123
AGCGCAGG	-0.0624
CGATCACG	0.0834
CGGCCACG	-0.175
CGCGAAGC	0.0898
ACAGTCTC	0.0655
CGGACTAC	0.0519
CAGCAGGC	0.207
ACTTAGAG	-0.256
GCACCTTA	-0.146
CAGGATTC	0.0395
GGCATATA	0.0179

Sequence	PBM E-score
ACCGCTGA	0.0809
AATAAACA	0.169
AGGTGGGA	-0.107
GATCATGC	0.0952
CTAGGGTA	0.0793
ACCTCGAC	-0.00505
GTTCCAAA	-0.0516
AATAGCAG	-0.142
AATCGGTG	0.0974
ATTCTATC	-0.154
AGGACACC	0.0945
TAAAAACA	-0.119
GCACAGCC	0.106
ACCCGATG	0.137
GCCGACAA	-0.01
ATCTTTGA	-0.148
CTTCAGCA	-0.0299
GTCTTGAA	-0.106
AAGACTAG	-0.209
AAGCCCGT	-0.15
AATGGGAG	0.199
ACGTTGTG	-0.0435
CGGCGACA	0.037
GAGAAATC	-0.0477
ACGTCTCC	0.0523

Sequence	PBM E-score
GACTCCGA	0.428
CCAAACGC	0.11
TGGGTAAA	-0.00311
CGTCACGC	-0.208
AAAACAAA	-0.256
GCATTTAC	-0.0932
AATAGTTG	0.0903
CCCGATCC	-0.0305
CAGAGGTC	-0.0609
GAGGGCGA	-0.187
CTGATTCC	0.261
AAGCACGA	0.204
CACGCCAC	0.0665
CGGATTCC	0.131
AGGTAACC	0.0511
ACACCAAA	-0.012
GCTGGAAC	-0.0431
GCACGTGC	-0.0186
AAGGCAAG	-0.288
AGGAAGTC	-0.0409
AAGTCAGT	0.203
AGTAATGA	0.172
CGCGCCTC	-0.0553
GCCCGACC	0.102
AGTAGATA	0.153

Sequence	PBM E-score
CGAGGAGA	-0.22
ACAGCGCG	-0.0748
ATCTGTGC	0.0213
AGCCCACC	-0.0218
GGGAAAAA	-0.119
ACATTGAT	0.0583
AGTTGCCC	-0.00534
CTTAAGAC	-0.197
CCGCGTAA	-0.179
ATGCGCTA	-0.0419
TAGTCAAA	0.117
CATTGAGC	-0.0604
CGATCTTA	-0.228
ACGGTCCT	-0.281
CGAAGAGC	-0.0701
TTACGGAA	-0.0717
GTTAGTCA	0.43
CACGCAAG	0.0733
ACTGCACC	0.108
CGGGGACA	-0.0869
ATGATGGG	0.0454
AGTGCCGG	-0.00074
AACCGTGT	0.172
ACGAGACG	-0.0734
GTTTGCCA	-0.119

Sequence	PBM E-score
AAACCCAT	0.182
CACTAAGC	0.0344
AGCTTGAT	0.0462
ATAGCAAG	0.161
GCGTCAAC	-0.0143
AAAATCGA	-0.0133
GCGTCTGA	-0.189
AAAATCCG	-0.0592
ATACTATA	0.189
AACGATAT	0.202
CGTAAAAG	-0.0723
CGATGCGC	0.0647
CAACTCAA	0.0938
CTGAGGCA	-0.0575
CGCATGTC	-0.0108
GATACATA	0.332
CACGAGAG	0.02
AATGGGAT	-0.262
GACCTGAA	-0.0627
CTAATCTC	0.0261
TCAGCTAA	-0.16
ACACCAGA	0.218
AAACGTTA	-0.052
CCAAGGGC	-0.134
CGGAACCG	0.0495

Sequence	PBM E-score
CGTAACCA	-0.12
CCTTCCCC	0.0876
AATGGACT	-0.0454
CTGACTGA	0.13
CGATCTCC	-0.0821
TTTAGAAA	-0.274
CGGTTTAC	-0.111
AGTCCTGA	0.114
GCTCTATA	-0.15
AGAACAAA	0.114
CGCGCGAG	0.167
CAGCTAGC	-0.071
AAAGTGGG	0.112
AATTATAT	0.0885
CTCCCACC	-0.0567
CGTCAGGC	-0.213
GAGGCCGA	-0.0911
GCGTACGA	0.131
TAATAGGA	-0.0104
ACTTTATG	0.149
CGTCTAGA	-0.194
GATGCCAA	-0.101
